# In PubChem BioAssay AID485344 (National Center for Advancing Translational Sciences (NCATS), 2010):
# About 6,900 (2%) of roughly 340,000 compounds were called active. No stated cut-off is given here; in the data, active means inhibition above about 30%; inactive means below that, where a call was filed. This is a selection; strong and weak results do not stand in their true shares. Where no call is shown, the source filed none.
# Molecular target: D(2) dopamine receptor (Homo sapiens) (UniProt P14416)
# Sequence of UniProt P14416 (P14416 whole entry, looked up): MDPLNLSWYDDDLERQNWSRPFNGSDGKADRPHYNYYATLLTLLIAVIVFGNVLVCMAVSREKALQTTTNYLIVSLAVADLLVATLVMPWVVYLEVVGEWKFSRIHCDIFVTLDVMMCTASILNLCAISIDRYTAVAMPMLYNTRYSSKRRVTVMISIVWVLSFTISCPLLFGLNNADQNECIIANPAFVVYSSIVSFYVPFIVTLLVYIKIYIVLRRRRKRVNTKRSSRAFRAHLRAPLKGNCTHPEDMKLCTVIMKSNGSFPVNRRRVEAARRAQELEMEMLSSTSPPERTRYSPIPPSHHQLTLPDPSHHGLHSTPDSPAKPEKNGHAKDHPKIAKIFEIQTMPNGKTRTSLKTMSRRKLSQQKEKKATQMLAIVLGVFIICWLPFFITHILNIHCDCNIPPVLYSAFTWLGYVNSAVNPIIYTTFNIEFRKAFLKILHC
# Test: HTS Assay for Allosteric Antagonists of the Human D2 Dopamine Receptor: Primary Screen for Antagonists; further: 0% is about no effect
# Conditions: HEK293 TREx D2 cells, calcium flux, dopamine EC80; at 10 µM; stronger effect = higher value
# In short: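 Measurement of antagonist activity uses fluorescent calcium dye in inducible HEK293 T-REx D2 cells: 10 s baseline, compound addition with 180 s read, EC80 dopamine addition with a further 180 s read.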
row,SMILES,inhibition
1,Cc1nn(C(C)C(=O)NC2CCC(C)CC2)c(=O)c2cc3sccc3n12 (configuration not stated),1.37%
2,CN(C)c1ccc(CNC(=O)CCCn2ccc3cc(S(=O)(=O)N4CCCC4)ccc32)cc1,2.45%
3,COc1ccccc1N1CCN(C(=O)c2cn(C)c3ccc(S(=O)(=O)N4CCOCC4)cc3c2=O)CC1,-19.5%
4,COc1ccc(Cl)cc1NC(=O)c1cc(C)nn1-c1ccccc1,-8.22%
5,COc1cccc(N2CCN(S(=O)(=O)c3ccc4c(c3)CCCN4C(C)=O)CC2)c1,-1.44%
6,Cc1ccc(Cc2nc3ccccc3nc2SCC(=O)N2CCCCC2C)cc1 (configuration not stated),-19.1%
7,Oc1ccc(NCc2ccc(OCc3ccccc3Cl)cc2)cc1,-13.7%
8,N#C/C(=C\c1c(Oc2ccc(Br)cc2)nc2ccccn2c1=O)c1nc2ccccc2s1,20.6%
9,COC(=O)c1cccc(NC(=O)Nc2cc(C(=O)NCc3cccc(F)c3)ccc2N2CCCC2)c1,22.1%
10,Cc1ccc(Cn2c(CCCNC(=O)C3CCCCC3)nc3ccccc32)cc1,-7.12%
11,O=C(NC1CCCCC1)c1ccc(CSc2nc3cccnc3n2Cc2ccccc2F)cc1,13.1%
12,O=C(Cn1ncc2c(Cl)cccc21)NCc1cccc(Br)c1,1.25%
13,Cc1ccc(N2CC(NC(=O)C(=O)c3c[nH]c4ccccc34)CC2=O)cc1 (configuration not stated),-24.8%
14,COc1ccccc1OCC(=O)NCC1(N(C)C)CCCCC1,-4.24%
15,CC(C)CCNC(=O)c1ccc2c(c1)N(Cc1ccccc1F)C(=O)c1ccccc1S2=O (configuration not stated),5.34%
16,CC(=O)c1c(C)[nH]c(C(=O)COC(=O)C2CC2)c1C,active: 32.4%
17,CCOc1cc2c(cc1OCC)C(c1c(F)cccc1Cl)CC(=O)N2 (configuration not stated),22.3%
18,Nc1nonc1/C(=N/O)N1CCN(CCO)CC1,active: 51.1%
19,O=C(NCCc1csc2nc(-c3ccc(F)cc3)nn12)c1ccco1,-12%
20,Cc1cccc(NC(=O)Cn2c(C(F)(F)F)nc3ccccc32)c1C,0.17%
21,CCOC(=O)c1c(S(=O)(=O)N2CCC(C(=O)N3CCN(c4cc(C)ccc4C)CC3)CC2)c(C)n(C)c1C,-9.21%

row,SMILES,inhibition
1,Cc1sc2c(c1C)c(=O)n(-c1ccc(Cl)cc1)c(=O)n2Cc1c(F)cccc1Cl,-2.91%
2,COc1cc(C2C(C(=O)Nc3ccccc3)=C(C)Nc3nc(SCc4ccccc4F)nn32)cc(OC)c1OC (configuration not stated),-6.68%
3,Cc1ccc(-c2cc(C(=O)N3CCN(c4ccccc4)CC3)c3ccccc3n2)cc1C,-4.96%
4,COC(=O)c1cc(NC(=O)CCc2c(C)nc3cc(-c4ccccc4)nn3c2C)cc(C(=O)OC)c1,7.57%
5,CC1CCN(S(=O)(=O)c2cc(C(=O)Nc3ccc(Br)cc3F)n(C)c2)CC1,2.36%
6,CCOc1ccccc1CNS(=O)(=O)c1csc(C(N)=O)c1,2.76%
7,CCN(CC)S(=O)(=O)c1ccc2c(c1)N(CC(=O)N1CCN(c3cc(Cl)ccc3C)CC1)C(=O)CO2,8.54%
8,CCc1ccccc1N1CC(c2nnc(NC(=O)c3ccco3)s2)CC1=O (configuration not stated),3.57%
9,CC(=O)OCc1cnc(C)c2oc(=O)c(C(=O)Nc3ccc(F)cc3C)cc12,-11.4%
10,CC(=O)Nc1nonc1-c1nnc(SCC(=O)Nc2ccccc2Cl)n1C,6.04%
11,COc1cc(NC(=O)c2cc(-c3ccccc3O)no2)cc(OC)c1OC,-9.73%
12,CCOc1ccc(CNC(=O)C2CCN(C3=NS(=O)(=O)C(c4ccc(C)cc4)=C3CC)CC2)cc1,16.5%
13,COc1ccc(C2CC(=O)c3cc(-c4nc(-c5ccc(Cl)cc5)cs4)c(=O)[nH]c3C2)cc1 (configuration not stated),9.92%
14,CC(C)NC(=O)Cn1ncn2c(cc3cc(F)ccc32)c1=O,-4.98%
15,Cc1ccccc1N1CCN(CCC(=O)Nc2ccc(F)cc2)CC1,active: 78.1%
16,Clc1cccc(-c2nnc(CN3CCN(c4ccccn4)CC3)o2)c1,-21.4%
17,Cc1cc(S(=O)(=O)Nc2cc3c(cc2N2CCOCC2)n(C)c(=O)n3C)ccc1F,-21.9%
18,COc1ccc(NC(=O)C(CC(C)C)NC(=O)C2CCCCC2)c(OC)c1 (configuration not stated),4.75%
19,CCc1nc2ccc(C(=O)NCCc3ccc(SC)cc3)cc2nc1CC,19.4%
20,CCN(C(=O)CCS(=O)(=O)c1cccc2nsnc12)c1cccc(C)c1,5.79%
21,O=C(Nc1nc2n(n1)C(c1ccc(F)cc1)C=C(c1ccc(Cl)cc1)N2)c1ccco1 (configuration not stated),24%

row,SMILES,inhibition
1,CCN(C(=O)c1cc2c(s1)-c1c(C)cccc1OC2)c1cc(C)ccc1C,-3%
2,CCOc1ccc2oc(=O)cc(CN3CCN(c4ccc(OC)cc4)CC3)c2c1,-5.74%
3,COc1ccc(OC)c(NC(=O)Cn2c(=O)oc3cc(S(=O)(=O)NCc4ccccc4)ccc32)c1,12.7%
4,CC1(C)Cc2c(c(N3CCOCC3)nc3sc(C#N)c(N)c23)CS1,active: 38.1%
5,O=C(NCC12CC3CC(CC(C3)C1)C2)c1cc2nc(-c3ccc(Cl)cc3)cc(C(F)(F)F)n2n1,7.13%
6,Cc1cccc(C)c1OCC(=O)Nc1nonc1-c1ccc(Br)cc1,-7.22%
7,COc1ccc(CCNC(=O)Cc2c(C)c3cc(OC)c(OC)cc3oc2=O)cc1,1.18%
8,Cc1ccc(C(=O)Nc2ccc(-n3c(C)nc4ccccc4c3=O)cc2)cc1[N+](=O)[O-],-5.86%
9,CNC(=O)c1ccc(Nc2nnc(-c3ccc(C)c(S(=O)(=O)NC(C)(C)C)c3)c3ccccc23)cc1,7.96%
10,CCc1ccc(-n2c(=O)c3cccnc3n2CC(=O)NCc2ccc(F)cc2)cc1,-3.22%
11,O=C(NCc1cccc(F)c1)c1ccc(CS(=O)c2ccccc2Cl)o1 (configuration not stated),1.28%
12,CCOC(=O)N1CCc2c(sc3c2c(=O)n(Cc2ccccc2)c(=O)n3CC(=O)Nc2c(C)cccc2C)C1,1.81%
13,COc1ccccc1NC(=O)CCN1CCC(C(N)=O)CC1,-7.38%
14,Cn1c(=O)c(=O)n(C)c2cc(S(=O)(=O)N3CCN(c4ccccc4F)CC3)ccc21,-11.5%
15,CC(=O)c1cc(-c2ccccc2)n(CC(=O)NC2CCCCCC2)c1C,7.79%
16,O=C(Nc1cccc(C(F)(F)F)c1)c1noc2c1CCc1ccccc1-2,-15.8%
17,O=C(NCCc1ccc(Cl)cc1)c1cccn1-c1nnc(N2CCCCC2)s1,6.44%
18,O=C(Cn1c(=O)n(Cc2cccs2)c(=O)c2cccnc21)Nc1ccccc1F,-3.85%
19,Cc1cc(O)c(C(c2cccc(F)c2)N2CCC(C)CC2)c(=O)n1Cc1ccco1 (configuration not stated),-11.1%
20,CN(C1CCCCC1)S(=O)(=O)c1ccc(C(=O)Nc2sc3c(c2C(N)=O)CC(C)(C)NC3(C)C)cc1,26.9%
